Consider seven molecules from article PMC3084709, “TMEFF2 Is a PDGF-AA Binding Protein with Methylation-Associated Gene Silencing in Multiple Cancer Types Including Glioma” (PLoS ONE, 2011).

By UniProt entry, the sequences of proteins in these tests, tags left out. Residues count along the entry.
UniProt P21860, residues 20-643: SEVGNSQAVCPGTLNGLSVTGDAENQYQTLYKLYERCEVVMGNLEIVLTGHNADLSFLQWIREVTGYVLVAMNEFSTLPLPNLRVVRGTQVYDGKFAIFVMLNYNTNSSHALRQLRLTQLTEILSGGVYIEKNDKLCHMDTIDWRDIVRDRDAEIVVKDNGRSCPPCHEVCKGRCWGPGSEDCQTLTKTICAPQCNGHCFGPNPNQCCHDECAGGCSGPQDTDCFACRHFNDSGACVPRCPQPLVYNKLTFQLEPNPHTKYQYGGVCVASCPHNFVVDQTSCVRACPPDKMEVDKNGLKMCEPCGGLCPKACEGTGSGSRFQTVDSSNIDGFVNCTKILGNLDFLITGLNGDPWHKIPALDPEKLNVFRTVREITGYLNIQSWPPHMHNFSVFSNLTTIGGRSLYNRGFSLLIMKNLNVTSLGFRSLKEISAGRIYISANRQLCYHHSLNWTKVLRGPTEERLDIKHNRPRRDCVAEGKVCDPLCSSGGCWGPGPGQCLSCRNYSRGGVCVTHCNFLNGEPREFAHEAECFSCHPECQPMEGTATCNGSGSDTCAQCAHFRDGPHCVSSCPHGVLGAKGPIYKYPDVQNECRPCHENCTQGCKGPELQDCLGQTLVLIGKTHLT

No constants are given. Whether binding was seen depends on the method and setting. For some of these results: Binding seen in cells or lysates may run through a third protein. Some results given as binding are weak or reduced against the parent protein; the word gives no strength. For some of these results: Where a sequence is shown, tags or fusion partners need not be part of it.

The target in assay [1] is T1, extracellular domain (ECD) of TMEFF2 fused to a FLAG tag (TECD-FLAG) (human) (UniProt Q9UIK5).
T1 sequence (chain, biotin (only in the ForteBio experiment, biotinylated TMEFF2-FLAG)): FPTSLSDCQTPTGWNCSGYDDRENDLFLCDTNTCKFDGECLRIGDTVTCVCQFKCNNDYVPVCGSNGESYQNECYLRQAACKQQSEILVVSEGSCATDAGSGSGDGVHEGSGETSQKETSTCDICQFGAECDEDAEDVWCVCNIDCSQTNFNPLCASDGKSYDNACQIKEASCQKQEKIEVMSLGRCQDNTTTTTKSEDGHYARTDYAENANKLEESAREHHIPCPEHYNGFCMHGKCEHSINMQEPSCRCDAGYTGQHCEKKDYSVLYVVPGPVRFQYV
Description: ELISA; TMEFF2 coat format: MaxiSorp plates coated with 1 µg/ml TECD-FLAG in 50 mM carbonate buffer pH 9.6 overnight at 4°C; serially diluted PDGF-AA, AB, BB or Fc-fusion proteins in PBS with 0.5% BSA, 0.05% polysorbate 20, 2 hours; bound PDGF detected with biotinylated anti-PDGF-A or anti-PDGF-B and streptavidin-HRP, bound Fc fusions with anti-human Fc-HRP; both purified. In general terms: ELISA stands for enzyme-linked immunosorbent assay.

Assay [2] concerns the target T2, gD-tagged full-length TMEFF2 (human) (UniProt Q9UIK5).
T2 sequence: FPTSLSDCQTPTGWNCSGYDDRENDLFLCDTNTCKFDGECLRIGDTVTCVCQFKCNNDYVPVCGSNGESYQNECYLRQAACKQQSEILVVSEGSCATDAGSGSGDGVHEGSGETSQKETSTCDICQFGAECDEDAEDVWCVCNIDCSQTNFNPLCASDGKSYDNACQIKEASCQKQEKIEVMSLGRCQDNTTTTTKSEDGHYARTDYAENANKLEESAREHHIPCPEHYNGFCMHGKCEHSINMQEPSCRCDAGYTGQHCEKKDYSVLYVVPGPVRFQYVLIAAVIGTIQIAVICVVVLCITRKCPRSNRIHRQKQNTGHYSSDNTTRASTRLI
Description: co-IP; 293 cells transfected with TMEFF2 constructs; 5 µg/ml PDGF-AA or AB in fresh medium for 30 minutes, washed with ice cold PBS, lysed (50 mM Tris pH 8.0, 150 mM NaCl, 1 mM EDTA, 1% NP-40); immunoprecipitated with anti-TMEFF2 pAb or anti-gD mAb; blotted with anti-PDGF-A; only the binder ….

The target in assay [3] is T3, full-length TMEFF2 (TMEFF2-FL) (human) (UniProt Q9UIK5).
T3 sequence: T2 sequence
Described as above.

Assay [4] deals with T1, extracellular domain (ECD) of TMEFF2 fused to a FLAG tag (TECD-FLAG) (human). Put plainly: BLI; label free ForteBio platform; biotinylated TMEFF2-FLAG immobilized on the streptavidin-coated sensor, PDGF ligands in solution; data not shown; both purified. (In BLI a coated tip is dipped into the sample, and binding shifts an interference pattern.)

As for “EGFR extracellular domain fused to hFcγ (from UniProt P00533 25-645) (Fc fusion)”, the binding entry in assay [1] was “no binding”.

On to “HER2 extracellular domain fused to hFcγ (from UniProt P04626 23-652) (Fc fusion)”, for which, in assay [1], the binding entry is “no binding”.

Consider “HER3 extracellular domain fused to hFcγ (from UniProt P21860 20-643) (Fc fusion)”, for which the binding result in assay [1] is on record as “no binding”.

Regarding “recombinant human PDGF-AA (from UniProt P04085 87-211) (ligand)”, the binding result in assay [1], in assay [2], in assay [3] and in assay [4] was “binds” each time.

As for “recombinant human PDGF-AB (from UniProt P04085 87-211; P01127 82-190) (ligand)”, the binding entry in assay [3] is recorded as “no binding (tested: 5 µg/ml PDGF-AB in the medium)”.

B1: HER4 extracellular domain fused to hFcγ (Fc fusion, UniProt Q15303 26-651)
chain: QSVCAGTENKLSSLSDLEQQYRALRKYYENCEVVMGNLEITSIEHNRDLSFLRSVREVTGYVLVALNQFRYLPLENLRIIRGTKLYEDRYALAIFLNYRKDGNFGLQELGLKNLTEILNGGVYVDQNKFLCYADTIHWQDIVRNPWPSNLTLVSTNGSSGCGRCHKSCTGRCWGPTENHCQTLTRTVCAEQCDGRCYGPYVSDCCHRECAGGCSGPKDTDCFACMNFNDSGACVTQCPQTFVYNPTTFQLEHNFNAKYTYGAFCVKKCPHNFVVDSSSCVRACPSSKMEVEENGIKMCKPCTDICPKACDGIGTGSLMSAQTVDSSNIDKFINCTKINGNLIFLVTGIHGDPYNAIEAIDPEKLNVFRTVREITGFLNIQSWPPNMTDFSVFSNLVTIGGRVLYSGLSLLILKQQGITSLQFQSLKEISAGNIYITDNSNLCYYHTINWTTLFSTINQRIVIRDNRKAENCTAEGMVCNHLCSSDGCWGPGPDQCLSCRRFSRGRICIESCNLYDGEFREFENGSICVECDPQCEKMEDGLLTCHGPGPDNCTKCSHFKDGPNCVEKCPDGLQGANSFIFKYADPDRECHPCHPNCTQGCNGPTSHDCIYYPWTGHSTLPQHARTP
Take B1: the binding entry in assay [1] was “no binding”.

B2: extracellular domain (ECD) of TMEFF2 fused to the Fc portion of the human immunoglobulin gamma (TECD-Fc) (Fc fusion, UniProt Q9UIK5-1 41-320)
chain: T1 sequence (chain, biotin (only in the ForteBio experiment, biotinylated TMEFF2-FLAG))
In the case of B2, the binding entry in assay [1] is listed as “no binding”.
